Structures are written as SMILES. In all, about 46,000 compounds went through this assay and about 60 (0.1%) were called active. Inconclusive results (about 3%) are left out. Calls follow the shape of the dose curve; as a rule, active = well fitted inhibition curve with a large enough effect; inconclusive = small, poorly fitted or top-dose-only effect; inactive = no such curve, though single readings can be large or run the other way. Some of the results follow.

The test is described as follows: Primary qHTS assay for Inhibitors of ovarian cancer metastasis using an organotypic tumor microenvironment (TME) model. Also: nearly all actives have a fitted effect of over 65% in size.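 As to activity change, negative = inhibition: plate controls were DMSO wells for no effect and tomatine positive control wells for full effect.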 As to conditions: SKOV3ip1-GFP adhesion/invasion on 3D omental model, fluorescence; series mostly up to 45.8 µM; activity change, negative = inhibition: at the top concentration. The method, boiled down: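 Adhesion/invasion was scored as fixed GFP-labeled SKOV3ip1 cell counts (488/509 nm), normalized to DMSO and tomatine controls. Cancer cells in serum-free medium, with four compound doses (0.36-46 umol/L), sat 2 hr at RT then 16 hr at 37 C on a 48 hr fibroblast/mesothelial/ECM culture.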
Regarding `Cc1ccc(CNC(=O)CCCCCn2c(=O)c3sccc3n(CC(=O)N(C)c3ccccc3)c2=O)cc1`, the “activity change, negative = inhibition” value is inactive: 2.04%.

Turning to `Cc1ccc(-c2ccc(CCC(=O)O)n2-c2cccc(O)c2)cc1`, the “activity change, negative = inhibition” value is inactive: 2.96%. Same read-out and setting: the same measure for `O=c1n(Cc2cccc(C(F)(F)F)c2)c2ccccc2c2nc(-c3ccccc3)nn12`: inactive: 1.1%; for `COc1ccc(-c2noc(CCC(=O)NCc3ccc(C)cc3)n2)cc1`: inactive: -24.8%. With `COc1ccc(-c2ccc(=O)n(CC(=O)Nc3ccc(C)cc3C)n2)cc1`, the outcome was inactive. `Cc1ccc(NS(=O)(=O)c2ccc3[nH]c(=O)ccc3c2)cc1N(C)C`: the “activity change, negative = inhibition” value is inactive: -5.97%. On to `C#CCOc1ccc(-c2nnc(Nc3cccc(C)c3)c3ccccc23)cc1`, for which the molecule was called inactive. With `Cc1ccc(NC(=O)c2cc(C)nc3c2c(C)nn3-c2cccc(Cl)c2C)c(C)c1`, the “activity change, negative = inhibition” value was inactive: -15.1%.

In the case of `Cc1cccc(Cn2c(=O)n(CCc3ccccc3)c(=O)c3c(C)c(C)sc32)c1`, the “activity change, negative = inhibition” value is inactive: 9.08%. For `CCc1ccc2oc(C(=O)Nc3cccc(C(F)(F)F)c3)cc(=O)c2c1`, the “activity change, negative = inhibition” value is inactive: -5.47%.

As to `CSc1nn(Cc2ccc(Cl)cc2)c(N(C(C)=O)C(C)=O)c1S(=O)(=O)c1ccccc1`, the outcome was inactive.

`COc1ccccc1CN1COc2ccc3c(oc(=O)c4ccccc43)c2C1`: the “activity change, negative = inhibition” value was inactive: -22.2%.

On to `CCOC(=O)[C@@H](N)Cc1ccc(-c2cc(O[C@H](c3ccc(Cl)cc3-n3ccc(C)n3)C(F)(F)F)nc(N)n2)cc1`, for which the “activity change, negative = inhibition” value is inactive: -11.7%. For `CCn1cc(C(=O)NCc2ccccc2OC)c(=O)c2cc(S(=O)(=O)N3CCCCC3)ccc21`, the outcome was inactive. Still for that read-out and setting: the result for `COc1ccccc1Nc1cc(C(=O)NC2CCCC2)c2ccccc2n1` reads “inactive”. Regarding `COc1ccc(S(=O)(=O)N2CCCCC2)cc1C(=O)Nc1cccc(C(F)(F)F)c1`, the “activity change, negative = inhibition” value was inactive: 28.3%. In the case of `COc1cccc2sc(=NC(=O)c3ccc(S(=O)(=O)N4CCCCC4)cc3)n(C)c12`, the outcome was inactive. Consider `CCOC(=O)c1cnc(NCc2ccccc2OC)c2ccccc12`, for which the molecule was called inactive. For `COc1ccc(/C=C/C(=O)Nc2sc3c(c2C(N)=O)CCCC3)cc1`, the “activity change, negative = inhibition” value is inactive: 30%. Consider `CCOC(=O)C1CCC(CN(Cc2ccc(Cl)cc2)S(=O)(=O)c2ccc(F)c(C(=O)Nc3cccc(F)c3)c2)CC1` (stereo unspecified), for which the “activity change, negative = inhibition” value is inactive: -0.315%. For `CCn1c(=O)cc(SCC(=O)NCCc2ccc(Cl)cc2)c2ccccc21`, the “activity change, negative = inhibition” value is inactive: -5.37%. Still for that read-out and setting: the result for `CCn1c(=O)c2cc(C(=O)NCCc3cc(OC)ccc3OC)sc2c2ccccc21` reads inactive: -3.16%. Turning to `CCCCN(CC)CCNC(=O)c1cc2c(=O)oc3ccc(C)cc3c2s1`, the call was inactive. For `Cc1cccc(Cn2cc(C(=O)Nc3ccc(F)c(C(F)(F)F)c3)ccc2=O)c1`, the “activity change, negative = inhibition” value was inactive: 25.7%. On to `O=C(NCc1cccc(F)c1)c1ccc(-n2cnc3cccnc32)cc1`, for which the outcome was inactive. With `Cc1ccc(-n2c(C)nc3c(cnn3-c3ccccc3C)c2=O)cc1F`, the “activity change, negative = inhibition” value was inactive: -4.59%.

These data come from PubChem BioAssay AID1963576 (National Center for Advancing Translational Sciences (NCATS), 2024).
